The experiment deals with NCI-H322M lung. Description: DTP human tumour cell line panel, 48 h.

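Values below derive from 48-hour exposures of cells grown in 96-well plates, with endpoints linearly interpolated between the two concentrations bracketing the appropriate inhibition level. GI50 = concentration required for 50% inhibition of growth. At the TGI there is no net growth.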

As usually defined, the GI50 is the concentration that inhibits growth by half. As usually defined, the TGI is the concentration at which net growth stops. A low value points to greater sensitivity of the cells. Turning to `CC(=O)Nc1nc(-c2ccc(N3CCN(C)CC3)c(NS(=O)(=O)c3cccc4c(N(C)C)cccc34)c2)cs1`, the GI50 is 12.6 µM and the TGI was determined as 23.8 µM.

The values above are taken from PubChem BioAssay (NCI).
